90 molecules from PubChem BioAssay AID463173 (ICCB-Longwood Screening Facility, Harvard Medical School, 2010) can be followed below.

Among all 52,000 compounds or so, about 4,300 (8.3%) were called active. Rule as the data show it: active = survival mostly below about 52% (no sharp cut-off); inactive = mostly above about 56%. This is one part of the list.

The test system of the assay is DeltatarO mutant. Nature of the assay: S. aureus survival, RN4220 and DeltatarO strains – OD600, teichoic acid synthesis inhibitors, primary screen (AID 463173). Conditions: S. aureus RN4220 wild type/DeltatarO growth, OD600, 18 h, hits give low values, screened at 18.75 µg/mL (by protocol).
`CC1(C)CC(NCC(=O)NC2CC(C)(C)NC(C)(C)C2)CC(C)(C)N1`: the survival is inactive: 103%.
The result for `CC(C)c1ccc(-c2nnc3n(CCc4ccccc4)c(=O)c4ccccc4n23)cc1` reads inactive: 65%; that for `Cc1ccc(CNC(=O)CCc2c(C)nc3nc(CNC(=O)OC(C)(C)C)nn3c2C)cc1`, inactive: 82%.
The result for `CC1CCC(NC(=O)C2(C)Cc3ccccc3C(=O)N2Cc2ccc(F)cc2)CC1` (stereo not given) reads inactive: 99%.
For `COc1ccc(C(=O)NCCc2sc(-c3ccc(F)cc3)nc2C)cc1OC`, the survival is inactive: 55%.
The result for `CCC(C(=O)NC1CCCCC1)n1c(SCc2ccc(F)cc2)nc2ccncc21` (stereo not given) reads inactive: 73%; that for `CCC(Cn1nnc2ccccc2c1=O)NC(=O)Nc1ccc(C)cc1C` (stereo not given), active: 44%; that for `COc1ccc(C(=O)NCC(c2ccc(N(C)C)cc2)N2CCCC2)c(OC)c1` (stereo not given), inactive: 94%.
For the molecule `Cc1cccc(-c2nc(CSc3nncn4c3cc3oc(C)cc34)c(C)o2)c1`, the survival is inactive: 71%.
For the molecule `Cc1nc2cccnc2n1CCNC(=O)Nc1cccc2ccccc12`, the survival was inactive: 99%.
Then `COc1ccccc1OCC(=O)Nc1nc2c(s1)CC(C)CC2` (stereo not given), with inactive: 69%; and `CC(C)(C)OC(=O)N1CCC(n2nccc2N)CC1`, with inactive: 90%; and `CCSc1ncc(Cl)c(C(=O)Nc2c(C(=O)Nc3cccc(C)c3)oc3ccccc23)n1`, with inactive: 109%.
For the molecule `COc1ccc(OC)c(CCNC(=O)c2cc3c(=O)oc4ccc(C)cc4c3s2)c1`, the survival is inactive: 88%.
The result for `CC(=O)Nc1ccc(NC(=O)C2CCCN2S(=O)(=O)c2ccc3c(c2)CCCC(=O)N3)cc1` (stereo not given) reads inactive: 70%; that for `O=C(Nc1ccc(F)c(Cl)c1)c1cc(S(=O)(=O)N2CCc3ccccc3C2)ccc1F`, inactive: 73%; that for `O=C(Nc1ccc2nc(SCc3ccccc3)sc2c1)c1ccccc1F`, inactive: 81%.
As to `CC1(C)CC(NC(=O)CCCC(=O)O)CC(C)(C)N1`, the survival is inactive: 81%.
Then `COc1ccc(N2CCN(C(=O)CN3C(=O)CSc4c3c(C)nn4-c3ccccc3)CC2)cc1`, with inactive: 79%; and `O=C(Nc1ccc2oc(-c3cccnc3)nc2c1)c1ccc(-c2ccc(OC(F)(F)F)cc2)o1`, with inactive: 79%.
Then `Cc1ccc(OCC(=O)Nc2ccc3c(c2)nc(CCNC(=O)c2ccco2)n3C)cc1`, with inactive: 127%.
Consider `CCCC(=O)n1nc(-c2ccco2)nc1NCc1ccccc1Cl`, for which the survival was inactive: 76%.
The result for `CC(C)CCNC(=O)c1ccc2c(c1)N(Cc1cccc(Cl)c1)C(=O)c1ccccc1S2` reads inactive: 83%; that for `O=C(Nc1nnc(S(=O)(=O)N2CCOCC2)s1)c1ccccc1Cl`, inactive: 79%.
Then `Cc1cc2nn(-c3ccc(F)cc3)nc2cc1NC(=O)c1cccc2ccccc12`, with inactive: 68%; and `Cc1cc(C)n2ncc(C(=O)Nc3ccc(C)c(C)c3)c2n1`, with inactive: 110%.
Then `Cc1nnc(N2CCCC(C(=O)NCc3ccccc3F)C2)c2nn(-c3ccc(Cl)cc3)c(C)c12` (stereo not given), with inactive: 89%.
For `COc1ccc(C(=O)NCc2nnc(SCC(=O)Nc3ccccc3)n2-c2ccccc2)cc1`, the survival was inactive: 85%.
The result for `O=C(CSc1n[nH]c(-c2ccccc2)n1)NCCCc1ccccc1` reads inactive: 92%; that for `Cc1ccc(-n2nnc(-c3nsc(NC(=O)c4cccc(Cl)c4)n3)c2C)cc1C`, inactive: 76%; that for `COc1cc(Cl)c(C)cc1NC(=O)c1ccc2c(SCC(=O)O)c3c(nc2c1)CCCC3`, active: 41%.
Then `Cc1ccccc1N1CC(C(=O)Nc2ccc(Br)cc2)CC1=O` (stereo not given), with inactive: 130%.
Regarding `COCCCNc1nc2cc(OC)c(OC)cc2c2nc(-c3ccccc3)nn12`, the survival is active: 47%.
With `COc1ccc(-c2nnn(CC(=O)N(CC(=O)NCc3ccccc3)c3ccc4c(c3)OCCO4)n2)cc1OC`, the survival is inactive: 69%.
Then `COc1ccc(CNC(=O)CN2N=C(c3ccccc3)CCC2=O)c(OC)c1`, with inactive: 94%; and `CCn1c(=O)c(=O)n(CC)c2cc(N3CCCCC3)c(NC(=O)c3ccc(Cl)cc3)cc21`, with inactive: 123%; and `CCN(C(=O)c1cc2c(=O)oc3ccc(C)cc3c2s1)c1cc(OC)ccc1OC`, with inactive: 78%.
The result for `CCOc1ccc2[nH]c(=O)c(CN(CCOC)C(=O)NC3CCCCC3)cc2c1` reads inactive: 100%.
The result for `CCN(CC)CCNC(=O)c1ccc2c(c1)NC(=O)C(CS(=O)(=O)Cc1cccc(Br)c1)N2` (stereo not given) reads inactive: 126%.
As to `COc1ccc(-c2nc3cc(C(C)C)ccc3o2)cc1NC(=O)COc1ccc(C)cc1C`, the survival is active: 37%.
For the molecule `O=C(Cn1c(=O)c2ccccc2n(CC(=O)Nc2ccc(F)cc2F)c1=O)NCCc1ccccc1`, the survival was inactive: 81%.
The result for `Cc1ccc(C)c(Nc2ncnc3onc(C)c23)c1` reads inactive: 81%.
The result for `COc1ccc(NC(=O)CCSc2nc(-c3ccco3)cc(C(F)(F)F)n2)cc1` reads inactive: 57%; that for `COc1ccc(NC(=O)CSc2ncccc2C(=O)O)cc1OC`, inactive: 93%; that for `Cc1nc(SCC(=O)Nc2c(C)nn(C)c2C)c2cnn(-c3ccccc3)c2n1`, inactive: 68%.
In the case of `Cc1ccc(Cl)cc1NC(=O)CSc1ccc(C(=O)O)cn1`, the survival was inactive: 63%.
The result for `c1ccc(-c2nnc(CN3CCN(c4ccccn4)CC3)o2)cc1` reads inactive: 79%; that for `CCC1CN(C(=O)N2CCC(C(=O)NCCc3ccccc3C)CC2)c2ccccc2O1` (stereo not given), inactive: 103%; that for `Cc1ccc(OCC(=O)OCc2cc(=O)n3nc(C4CCCCC4)sc3n2)cc1C`, inactive: 88%.
Then `O=C(c1[nH]c2ccccc2c1Sc1ccc(Cl)cc1)N1CCCCC1`, with active: 11%.
The result for `O=C1CC(c2ccccc2)Sc2nc(-c3ccc(F)cc3)nn21` (stereo not given) reads inactive: 81%; that for `COc1ccc(C(=O)Nc2cc(C(C)C)c(O)c(S(=O)(=O)c3ccc(Cl)cc3)c2C)cc1`, inactive: 73%.
As to `CCN(Cc1ccccc1)Cc1c(O)ccc2c(=O)c(-c3ccccc3)c(C(F)(F)F)oc12`, the survival was inactive: 155%.
Then `CCOc1ccccc1CNCc1c(C(=O)O)c(C)n(Cc2ccc(Cl)cc2)c1C`, with inactive: 75%; and `CCC1CCCCN1CCCNC(=O)c1ccc2c(c1)N(Cc1ccccc1)C(=O)c1ccccc1S2(=O)=O` (stereo not given), with inactive: 156%.
Then `CCn1nc(C)c2c(-c3ccccc3)cc(=O)n(C(C)C(=O)NCc3cccc(OC)c3)c21` (stereo not given), with inactive: 83%; and `CCOc1cccc(CC(=O)N2CCc3c([nH]c4ccccc34)C2c2ccccc2)c1OCC` (stereo not given), with inactive: 76%.
Then `CCN(CC)c1ccc(CN(C(=O)Cc2coc3ccc(C)cc23)C2CCS(=O)(=O)C2)cc1` (stereo not given), with inactive: 82%; and `CCc1ccc(OCCCn2c(-c3ccc(Cl)cc3)nc3ccccc3c2=O)cc1`, with active: 44%.
In the case of `CCCN1C(=O)CSC1=Nc1ccccc1`, the survival was inactive: 103%.
The result for `Cc1ccc(-c2nc3scc(CCNS(=O)(=O)c4ccc(F)c(C)c4)n3n2)cc1` reads inactive: 75%; that for `Cc1ccc(C(=O)Nc2cc3c(cc2N2CCCC2)n(C)c(=O)c(=O)n3C)cc1`, inactive: 94%; that for `COc1cc(NC(=O)COCc2cc(-c3ccc(F)cc3)on2)cc(OC)c1OC`, inactive: 75%.
The result for `CCCCn1nc(CC(=O)O)c2ccccc2c1=O` reads inactive: 83%; that for `Cc1nn(C(C)(C)C)c(OC(=O)C(C)(C)C)c1Sc1ccccc1`, active: -10%; that for `Cc1ccc(C(c2nnnn2C2CCCC2)N(Cc2cccnc2)CC2CCCO2)cc1` (stereo not given), inactive: 74%.
Then `COc1cccc(-n2c(SCC(=O)c3ccc(Cl)cc3)nc3c([nH]c4ccccc43)c2=O)c1`, with inactive: 63%; and `CSc1ccc(CNC(=O)c2ccc(NC(=O)c3nsc4ccccc34)cc2)cc1`, with inactive: 91%; and `COC(=O)Cn1c(=O)c2c(nc3n2CCN3c2ccc(F)cc2)n(C)c1=O`, with inactive: 76%.
For `CSc1nnc(C2CCCN2Cc2cccnc2)n1C` (stereo not given), the survival is inactive: 80%.
The result for `Cc1ccccc1NC(=O)Cn1c(=O)n(CC2CCC(C(=O)NCCc3ccccc3)CC2)c(=O)c2ccccc21` (stereo not given) reads inactive: 73%.
In the case of `NC(=S)N/N=C/c1ccccc1OCC(=O)O`, the survival was inactive: 80%.
Then `Cc1ccc(N2C(=O)[C@@H]3CSC(c4ccc(F)cc4)N3C2=O)cc1` (stereo not given in full), with inactive: 68%.
On to `COc1ccc(Cl)cc1NC(=O)Cn1c(=O)n(CCC(=O)NCc2ccc3c(c2)OCO3)c(=O)c2ccccc21`, for which the survival was inactive: 95%.
Then `CCOc1ccccc1C(=O)Nc1nc2c(s1)CC(C)CC2` (stereo not given), with inactive: 82%; and `Cc1ccc(CNS(=O)(=O)c2ccc(-c3cc(C(F)(F)F)on3)s2)cc1`, with inactive: 72%.
`Nc1c(C(=O)Nc2ccccc2)nnn1Cc1ccc(F)cc1Cl`: the survival was inactive: 99%.
`O=C(Nc1ccc(OCc2cc(=O)n3c4c(sc3n2)CCCC4)cc1)c1ccccc1`: the survival was inactive: 82%.
The result for `CC1CCc2nc3ncn(Cc4ccccc4F)c(=O)c3cc2C1` (stereo not given) reads inactive: 66%.
Then `COc1ccc(N2CC(NC(=O)c3ccc4c(c3)OCO4)CC2=O)cc1` (stereo not given), with inactive: 131%.
For `CCOc1ccc(NC(=O)CN(c2ccc(Cl)cc2C)S(=O)(=O)c2ccccc2)cc1`, the survival is active: 45%.
Then `COc1ccc(NC(=O)CN(c2ccc(C)cc2)S(=O)(=O)c2cccc3nonc23)cc1OC`, with inactive: 64%.
Then `CCOc1ccc(OCC)c(NS(=O)(=O)c2c(C(=O)N3CCC(C)CC3)c(C)n(C)c2C)c1`, with active: 8%.
For the molecule `Clc1ccc(CSc2ncn[nH]2)cc1`, the survival is inactive: 84%.
Then `Cn1cc(C(=O)N2CCN(c3cccc(C(F)(F)F)c3)CC2)c2c3ccccc3n(C)c2c1=O`, with active: 20%.
Then `O=C(O)CCn1cnc2onc(-c3cc(F)cc(F)c3)c2c1=O`, with inactive: 104%; and `CC(=O)Nc1ccc(NC(=O)Cn2nc(C(=O)Nc3ccc(C)cc3)ccc2=O)cc1`, with inactive: 104%.
Regarding `CCOc1ccc(-c2cc3c(=O)n(CC(=O)NCc4ccc(Cl)cc4)ccn3n2)cc1`, the survival was inactive: 94%.
Then `COc1ccccc1N1CCN(c2nc(-c3ccc(C)cc3)nc3ccccc23)CC1`, with inactive: 83%.
Then `CCOC(=O)c1c(-c2ccccc2)csc1NC(=O)c1cc(-c2ccc(F)cc2)on1`, with inactive: 66%.
